Measurements: PMC4336329 (PLoS ONE, 2015)
Out of some 310,000 compounds screened, about 2,200 (0.71%) showed an effect of 50% or more. Effects have a minus sign here. The list shows a part of the results.

These molecules were tested against human ether-à-go-go-related gene (hERG) potassium channel (human, UniProt Q12809) (assay: primary screen, population patch clamp on CHO cells stably expressing hERG).
Sequence of human ether-à-go-go-related gene (hERG) potassium channel (Q12809 whole entry, looked up): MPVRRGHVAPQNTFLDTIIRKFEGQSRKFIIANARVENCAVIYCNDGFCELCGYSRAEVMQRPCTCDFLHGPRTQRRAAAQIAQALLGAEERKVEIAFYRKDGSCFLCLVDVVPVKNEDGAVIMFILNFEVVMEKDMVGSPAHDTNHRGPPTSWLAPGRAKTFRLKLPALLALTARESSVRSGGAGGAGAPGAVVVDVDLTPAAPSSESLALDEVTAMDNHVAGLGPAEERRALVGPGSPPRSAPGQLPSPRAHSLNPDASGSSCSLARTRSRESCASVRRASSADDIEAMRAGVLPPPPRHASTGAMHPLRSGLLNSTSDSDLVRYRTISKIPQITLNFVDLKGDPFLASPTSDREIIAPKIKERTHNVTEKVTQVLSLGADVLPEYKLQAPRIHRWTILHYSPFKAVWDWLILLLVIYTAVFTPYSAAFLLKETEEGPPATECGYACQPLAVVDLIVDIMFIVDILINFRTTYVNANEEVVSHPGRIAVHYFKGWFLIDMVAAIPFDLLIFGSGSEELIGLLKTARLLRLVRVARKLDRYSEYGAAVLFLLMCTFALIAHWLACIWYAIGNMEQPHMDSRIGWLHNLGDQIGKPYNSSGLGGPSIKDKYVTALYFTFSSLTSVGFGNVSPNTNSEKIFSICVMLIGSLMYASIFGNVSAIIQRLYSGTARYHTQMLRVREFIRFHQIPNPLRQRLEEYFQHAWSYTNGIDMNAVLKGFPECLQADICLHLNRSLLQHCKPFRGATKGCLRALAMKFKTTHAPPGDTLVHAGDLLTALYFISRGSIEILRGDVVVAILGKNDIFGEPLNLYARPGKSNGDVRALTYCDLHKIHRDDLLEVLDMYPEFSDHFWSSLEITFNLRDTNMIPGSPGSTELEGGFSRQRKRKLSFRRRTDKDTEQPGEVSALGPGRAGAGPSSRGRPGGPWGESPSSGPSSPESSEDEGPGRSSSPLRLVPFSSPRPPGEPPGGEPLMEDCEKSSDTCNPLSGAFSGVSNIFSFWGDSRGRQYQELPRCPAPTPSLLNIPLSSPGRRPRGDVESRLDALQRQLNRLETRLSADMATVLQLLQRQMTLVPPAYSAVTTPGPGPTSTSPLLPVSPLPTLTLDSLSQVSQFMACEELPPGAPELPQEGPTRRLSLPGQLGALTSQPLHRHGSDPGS

Compound | hERG current change (%, negative = inhibition) at 1uM [%]
O=S(=O)(c1ccccc1)N1CCNCC1 | 10.4
CC1Cc2ccccc2N1CC(=O)NC(=O)NC1CCCC1 (centres unmarked) | -1.62
CCCCN(CC)CCNC(=O)c1ccc2c(Cl)c3c(nc2c1)CCC3 | 5.61
O=C(NCCN1CCOCC1)c1cc(Cl)ccc1[N+](=O)[O-] | 14.6
COc1ccc(NC(=O)c2cn3c(nc4ccccc43)c(C#N)c2C)cc1 | 4.96
O=C1CC(/C=C/c2ccccc2)=Nc2ccccc2N1 | 6.2
O=C(COc1ccccc1Cl)c1ccc2c(c1)CCCC2 | 5.2
O=C(N/N=C\c1cc(Br)ccc1O)c1ccc(S(=O)(=O)N2CCCCC2)cc1 | 15.6
O=C(Nc1ccccc1)c1ccc(F)cc1F | 8.41
CC(=O)O[C@H]1C[C@@H]2CC[C@@H]3[C@H](CC[C@@]4(C)[C@H]3C[C@H]([N+]3(C)CCCCC3)[C@@H]4OC(C)=O)[C@@]2(C)C[C@@H]1N1CCCCC1.[Br-] | 20.4
O=C(C[N+]12CCN(CC1)CC2)NCCc1ccc(Cl)cc1Cl.[Cl-] | 17.3
COCCCNC(=O)C(=O)Nc1ccc2c(c1)N(S(=O)(=O)c1cccs1)CCC2 | 10.1
CC(C)(C)NC(=O)CN(C(=O)CNS(=O)(=O)c1ccc(Cl)cc1)c1ccc2c(c1)OCCO2 | 4.44
CC1(C)NC(=O)N(CCOc2cccc(Cl)c2Cl)C1=O | 5.11
CC(=O)c1sc2nsc(SCCN3CCCC3)c2c1N | 12
O=C(CNS(=O)(=O)c1cccs1)Nc1ccc2c(c1)OCCO2 | 15.2
C(=N\Nc1nc2ccccc2[nH]1)/c1ccc2ncccc2c1 | 10.8
CCn1cc(CNC(=O)c2ccc(C)s2)cn1 | 7.72
Cc1nn(-c2ccccc2)c(Cl)c1C(=O)Nc1ccccc1 | 7.05

Compound | hERG current change (%, negative = inhibition) at 1uM [%]
c1ccc(-n2nnnc2-n2nnc3ccccc32)cc1 | 10.4
CCOC(=O)c1[nH]c2ccc(OC)cc2c1NC(=O)c1cccc(OC)c1 | 3.45
CC(=O)NS(=O)(=O)c1ccc(NC(=O)c2cc(-c3ccc(C)cc3)nc3ccccc23)cc1 | 5.15
O=C1CC(=O)N(Cc2ccco2)C(=O)N1 | -3.52
C/C(=N\NC(=O)c1ccccc1)c1ccc(NC(=O)c2cccs2)cc1 | -2.08
COCC(=O)N(Cc1cc2ccc(C)cc2[nH]c1=O)c1cccc(C)c1 | 11.9
CN(C)S(=O)(=O)c1cccc(-c2nnc(SCc3ccc4c(c3)OCCO4)o2)c1 | -0.0123
CN(C)CCC(=O)c1ccc(F)cc1.Cl | 5.98
Cc1ccc(-n2c(SCC(=O)OC(C)C)nnc2-c2ccco2)cc1 | -2.47
CN(C)S(=O)(=O)c1ccc(C(=O)OCC(=O)c2ccc3c(c2)NC(=O)CO3)cc1 | 9.19
Nc1nonc1-c1noc(N2CCCCC2)n1 | 13.4
COC(=O)C(O)(c1ccc(NC(=O)NC2CCCCC2)cc1)C(F)(F)F (centres unmarked) | 9.14
Cc1ccc(-c2c(C)n([O-])c3c([n+]2=O)CCCCC3)cc1 | 16.8
COc1ccc(CCC(=O)NCCc2ccc(Cl)cc2)cc1 | 6.2
CCNC(=O)CC1C(=O)N(c2ccccc2)C(=O)N1Cc1ccc(OC)cc1 (centres unmarked) | 14.4
O=C(NCCCN1CCOCC1)c1ccccc1N1C(=O)[C@@H]2Cc3c([nH]c4ccccc34)C(c3cccc(Cl)c3)N2C1=O (some centres unmarked) | -19.4
Cc1c(C(=O)NC(C)C2CC3CCC2C3)cccc1[N+](=O)[O-] (centres unmarked) | 12.7
Cl.c1coc(Cn2nnnc2CN2CCN(C3CCCCC3)CC2)c1 | -13.5
COc1ccc(-c2nn(-c3ccccc3)cc2/C=C/C(=O)OCC(=O)Nc2cccc(C#N)c2)cc1 | 5.97

Compound | hERG current change (%, negative = inhibition) at 1uM [%]
O=C(CSc1ccc2ccccc2n1)N/N=C/c1ccccc1O | 15.9
CN1CCCN=C1COC(=O)C(O)(c1ccccc1)C1CCCCC1.Cl (centres unmarked) | 14.6
O=C(CN1C(=O)NC2(CCCCC2)C1=O)Nc1ccc(Cl)c(S(=O)(=O)N2CCOCC2)c1 | 21.2
COc1ccc2c(c1)c(=O)cc(-c1ccccc1)n2C | 8.15
CCC(C)NS(=O)(=O)c1cc2c3c(c1)CCN3C(=O)CC2 (centres unmarked) | 19.7
CCOC(=O)c1sc2nc(CC(=O)OC)nc(NCC(=O)OC)c2c1C | 9.63
NS(=O)(=O)c1ccc(NS(=O)(=O)c2ccc(NC(=S)Nc3ccccc3)cc2)cc1 | 9.35
NC(=O)c1ncc(C(F)(F)F)cc1Oc1cccc(F)c1 | 12.5
O=C(OCC(=O)N1CCN(c2ccccc2)CC1)c1cc(Br)ccc1Cl | -3.93
CCCn1c(C)c(C(=O)c2cccc3ccccc23)c2ccccc21 | 8.01
CCOC(=O)c1cc2occc2n1Cc1ccc(F)cc1 | 21
COC(=O)c1[nH]c2ccc(C)cc2c1NC(=O)C1=COCCO1 | 8.92
CC(NC(=O)C(=O)Nc1nccs1)c1ccccc1 (centres unmarked) | 13.5
Cc1ccc(OCC(=O)N/N=C\c2cccs2)c([N+](=O)[O-])c1 | 9.22
Cc1ccc(S(C)(=O)=O)cc1C(=O)NC(C)C1CC2CCC1C2 (centres unmarked) | 12.5
C[C@H]1[C@H](C)CC[C@]2(C)CC[C@]3(C)C(=CC[C@@H]4[C@@]5(C)CC[C@@H](O)[C@](C)(C(=O)O)[C@@H]5CC[C@]43C)[C@H]12 | 13.6
CCC(C)Nc1nc2c(c(=O)n(C)c(=O)n2C)n1Cc1cccc(C)c1 (centres unmarked) | 8.01
Cc1ccc(C2=N/C(=C\N3CCCCC3)C(=O)O2)cc1 | -4.78
